# Some of the results follow. At the low end of the ranking, values are background and their order means little.
# Target: T1, GST-Rok (full length) (UniProt O34857)
# T1 sequence: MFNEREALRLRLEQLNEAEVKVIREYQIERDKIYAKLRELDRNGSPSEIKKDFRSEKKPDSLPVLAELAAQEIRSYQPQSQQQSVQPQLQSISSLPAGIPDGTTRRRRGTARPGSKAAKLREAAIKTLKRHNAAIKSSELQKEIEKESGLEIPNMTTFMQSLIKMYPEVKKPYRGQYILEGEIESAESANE
# Assay: protein binding microarray;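 further: rank score from −0.5 (least bound) to 0.5 (best bound)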
# Settings: Rok is a gene silencer of Bacillus subtilis; high values mean tight binding; most listed sequences are background and not binding sites; double strand, one strand shown
row,Sequence,binding signal
1,TAGGAACA,0.118 E-score
2,CTTTTAGC,0.0796 E-score
3,CCCTCACA,-0.265 E-score
4,CTATCGCC,-0.072 E-score
5,AGTTAGCG,0.064 E-score
6,AGTTAGTG,0.0885 E-score
7,AAAACCCT,-0.212 E-score
8,ATGGAATG,0.0653 E-score
9,AGACGGAG,-0.27 E-score
10,TAATGGAA,0.193 E-score
11,AGTGCCCA,-0.21 E-score
12,GGGACACC,-0.245 E-score
13,GGGAAGCA,-0.199 E-score
14,ATCGTATA,0.244 E-score
15,AAACTATG,0.195 E-score
16,CGCAGAAA,-0.119 E-score
17,AAATGCCC,-0.0117 E-score
18,CGTAAGCC,-0.198 E-score
19,AATTTCTG,0.158 E-score
20,CACTTCAA,-0.11 E-score
21,CTTGTAGA,0.186 E-score
22,TACGGACA,0.0616 E-score

row,Sequence,binding signal
1,AAAAGTCT,0.00793 E-score
2,CCCCACGA,-0.304 E-score
3,CAATTCTA,0.278 E-score
4,AGAACATC,-0.0292 E-score
5,AGTTGGGC,0.0454 E-score
6,AATTGCGT,0.3 E-score
7,GAAGTCGA,0.0904 E-score
8,AACGTTAT,0.216 E-score
9,ATTCGTCG,0.21 E-score
10,CGGGCTTA,-0.258 E-score
11,AGCACGTG,0.0178 E-score
12,ATCGCCTA,-0.165 E-score
13,ATCATCAA,-0.11 E-score
14,AACAAATG,0.0365 E-score
15,GACGTCTC,-0.121 E-score
16,GCTGGCTA,-0.129 E-score
17,ATTCTGAG,0.0932 E-score
18,GGCATCCC,-0.344 E-score
19,CCTAATCG,-0.00644 E-score
20,ACCTCTTC,-0.21 E-score
21,CCTCAGAA,-0.0228 E-score
22,ACAAGGAC,-0.0597 E-score

row,Sequence,binding signal
1,ACTTGAAA,0.0856 E-score
2,GAAGTCAC,-0.0246 E-score
3,CGTATTGA,0.15 E-score
4,GGGGGGCA,-0.399 E-score
5,AAATCTGT,0.214 E-score
6,GGACGTCC,-0.183 E-score
7,ACCGGTAC,0.00493 E-score
8,CTAGGGCA,-0.14 E-score
9,TCCCACGA,-0.153 E-score
10,ATAGCGTG,-0.0395 E-score
11,TGATTCAA,-0.164 E-score
12,ACTCACCA,0.0407 E-score
13,GAGGCTCC,-0.339 E-score
14,AAGCGTGG,-0.109 E-score
15,TAATATTA,0.304 E-score
16,ATTAATGA,0.18 E-score
17,TCACTCCA,-0.0035 E-score
18,GTTTCTGA,0.161 E-score
19,CTGGCAAC,-0.152 E-score
20,GTCGCTAA,0.16 E-score
21,TACAGAAA,0.177 E-score
22,CCTCACCA,-0.137 E-score

row,Sequence,binding signal
1,AGTGACTA,0.145 E-score
2,AAAAAGTG,-0.135 E-score
3,AACCCACA,0.0127 E-score
4,ACCCCCGA,-0.452 E-score
5,GATGCACA,0.0111 E-score
6,GCACTACA,-0.0483 E-score
7,AATGCGTC,0.0567 E-score
8,CAAGTGTA,0.163 E-score
9,TGGTGGAA,-0.0913 E-score
10,AACTTAAC,0.178 E-score
11,ACGTAGTG,0.0335 E-score
12,CTTCCTAA,-0.00177 E-score
13,AATCATGG,-0.0415 E-score
14,GACAGCCA,0.0747 E-score
15,AGCAGTCA,0.0758 E-score
16,AGTTTACG,0.182 E-score
17,GGCCGGAA,-0.178 E-score
18,ACTCTTTG,0.0631 E-score
19,GGTGCAAC,-0.11 E-score
20,CCAATGAA,-0.228 E-score
21,CTCAAATC,0.0994 E-score
22,CCCCAACC,-0.378 E-score

row,Sequence,binding signal
1,AAGTGGCT,0.0139 E-score
2,AGGTCAGC,-0.133 E-score
3,CCCGCTGA,-0.0983 E-score
4,AGTCAACT,0.127 E-score
5,AACTGTCT,-0.0746 E-score
6,ATGAAGGC,-0.181 E-score
7,AAGAGTAC,0.148 E-score
8,ACCCGAGG,-0.208 E-score
9,CCTCGCAA,0.00653 E-score
10,GCTCGGAC,-0.286 E-score
11,CTGCAATA,0.13 E-score
12,GATTAATA,0.315 E-score
13,ACGTTGGG,-0.04 E-score
14,ATGATAAG,0.108 E-score
15,GCAAGTTA,0.261 E-score
16,AACAATGC,0.00799 E-score
17,AAGATTCT,0.175 E-score
18,ACAGGAGA,-0.184 E-score
19,ACGTTATC,0.179 E-score
20,AAAGCACG,-0.137 E-score
21,ACATAGGT,0.0815 E-score
